Reference: patent US20180312819A1 (AP BIOSCIENCES, published 2018)

Columns and labels:
[1] = target: T1, VEGF-A (R&D Systems) (UniProt P15692-4 27-191, limits assumed); assay: direct ELISA, VEGF-A coated on plate, anti-Fc HRP detection
T1 sequence (looked up): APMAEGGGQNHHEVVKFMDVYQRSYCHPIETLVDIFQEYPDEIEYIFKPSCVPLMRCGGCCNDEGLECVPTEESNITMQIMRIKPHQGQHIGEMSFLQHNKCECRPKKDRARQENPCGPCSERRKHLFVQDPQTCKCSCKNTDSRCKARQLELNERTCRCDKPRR
Method: The data was analyzed by sigmoidal curve fitting using Prism 4.

[2] = target: T2, VEGF165 (293-VE) (UniProt P15692-4 27-191); assay: solution binding: VEGF165 incubated 45 min at 37 C with titrated ACVP-1, free VEGF measured by ELISA (Human VEGF DuoSet kit)
T2 construct: the UniProt canonical entry is a longer isoform; also called VEGF-A
T2 sequence (looked up): T1 sequence (looked up)
Method: After incubation, free VEGF was detected using the Human VEGF DuoSet ELISA Development Kit (R&D Systems Catalog No. DY293B) according to the manufacturer's instructions. The data was analyzed by sigmoidal curve fitting using Prism 4.

[3] = target: T1, VEGF-A (R&D Systems); assay: solution binding: 5 pM VEGF-A incubated overnight at 4 C with 0-100 pM ACVP-1, free VEGF measured by sandwich ELISA (Human VEGF Quantikine kit); experiment 2 of 2
[4] = target: T1, VEGF-A (R&D Systems); assay: solution binding: 5 pM VEGF-A incubated overnight at 4 C with 0-100 pM ACVP-1, free VEGF measured by sandwich ELISA (Human VEGF Quantikine kit); experiment 1 of 2

B1: ACVP-1 (bispecific anti-complement/VEGF fusion protein: VID - human IgG1 Fc - G6 linker - CID-KYDN) (Fc fusion)
chain: GRPFVEMYSEIPEIIHMTEGRELVIPCRVTSPNITVTLKKFPLDTLIPDGKRIIWDSRKGFIISNATYKEIGLLTCEATVNGHLYKTNYLTHRQTNTIIDVVLSPSHGIELSVGEKLVLNCTARTELNVGIDFNWEYPSSKHQHKKLVNRDLKTQSGSEMKKFLSTLTIDGVTRSDQGLYTCAASSGLMTKKNSTFVRVHEK[human IgG1 Fc cut from this listing][about 200 residues cut from this listing]
notes: Expressed in HEK293 with the SP2 signal peptide, purified on Protein A; also called bispecific fusion protein ACVP-1
[1]
  EC50: 220 pM
[2]
  EC50: 16.5 pM
[3]
  EC50: 3.42 pM
[4]
  EC50: 3.44 pM
